Source: PMC4336329 (PLoS ONE, 2015)
Hit rate of the full screen: of about 310,000 compounds, about 14,000 (4.5%) showed an effect of 50% or more. Effects have a minus sign here. Some of the results follow.

target: human ether-à-go-go-related gene (hERG) potassium channel (human, UniProt Q12809); test: primary screen, population patch clamp on CHO cells stably expressing hERG
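Note: peak tail current of the secondary pulse compared with the same well before compound.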

Sequence of human ether-à-go-go-related gene (hERG) potassium channel (Q12809 whole entry, looked up): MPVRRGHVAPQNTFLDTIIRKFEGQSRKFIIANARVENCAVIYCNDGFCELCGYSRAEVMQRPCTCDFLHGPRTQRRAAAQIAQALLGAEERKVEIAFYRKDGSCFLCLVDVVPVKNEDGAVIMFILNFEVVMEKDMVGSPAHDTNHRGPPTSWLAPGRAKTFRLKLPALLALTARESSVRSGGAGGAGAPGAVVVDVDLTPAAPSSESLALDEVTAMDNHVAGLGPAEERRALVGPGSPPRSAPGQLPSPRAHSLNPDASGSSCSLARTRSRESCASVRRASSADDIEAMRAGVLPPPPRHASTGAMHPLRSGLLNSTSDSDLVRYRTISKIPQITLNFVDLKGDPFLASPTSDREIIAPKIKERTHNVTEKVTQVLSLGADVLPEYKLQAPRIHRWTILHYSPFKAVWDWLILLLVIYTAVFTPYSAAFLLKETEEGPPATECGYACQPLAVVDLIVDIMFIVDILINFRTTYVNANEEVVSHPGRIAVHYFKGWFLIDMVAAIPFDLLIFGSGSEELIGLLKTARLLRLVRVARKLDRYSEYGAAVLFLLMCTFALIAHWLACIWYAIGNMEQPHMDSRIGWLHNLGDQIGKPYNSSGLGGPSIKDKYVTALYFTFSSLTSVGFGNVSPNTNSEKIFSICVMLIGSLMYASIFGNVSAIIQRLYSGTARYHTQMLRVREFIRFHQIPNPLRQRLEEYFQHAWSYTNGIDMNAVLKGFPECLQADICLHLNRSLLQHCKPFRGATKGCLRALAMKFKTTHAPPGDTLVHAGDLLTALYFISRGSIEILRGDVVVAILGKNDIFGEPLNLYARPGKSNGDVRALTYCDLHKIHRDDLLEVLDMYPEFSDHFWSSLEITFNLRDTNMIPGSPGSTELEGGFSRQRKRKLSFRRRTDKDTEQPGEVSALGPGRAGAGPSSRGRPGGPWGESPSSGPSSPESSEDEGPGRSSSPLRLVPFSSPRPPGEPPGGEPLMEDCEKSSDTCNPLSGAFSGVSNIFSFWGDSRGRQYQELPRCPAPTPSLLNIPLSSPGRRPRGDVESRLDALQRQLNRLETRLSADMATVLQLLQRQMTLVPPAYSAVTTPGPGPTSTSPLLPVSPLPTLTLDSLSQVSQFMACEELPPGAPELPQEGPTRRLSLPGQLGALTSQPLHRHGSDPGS

Going from `COc1ccc(OCc2cc(C(=O)N(C)Cc3nnc(C)o3)no2)c(Cl)c1` to `COc1ccc(N=c2oc3cc(O)ccc3cc2C(=O)NCC2CCCO2)c(OC)c1` (centres unmarked), the “hERG current change (%, negative = inhibition) at 10uM” value falls from 8.63% to 3.71%.

Compared with `O=C(NCc1ccc(Cl)cc1)c1ccc2ccccc2n1`, `NC(=O)C1=C[C@@H](c2ccccc2)C[C@@H](OCc2ccc(CO)cc2)O1` is lower in “hERG current change (%, negative = inhibition) at 10uM” value: 18.5% for the first, 2.7% for the second.

Going from `CC(=O)NC(Cc1c[nH]c2ccccc12)C(=O)N/N=C/c1ccccc1` (centres unmarked) to `O=S(=O)(/C=C/c1ccccc1)NCCc1ccccn1`, the “hERG current change (%, negative = inhibition) at 10uM” value falls from 26.2% to 10.7%.

Compared with `CC1(C)Oc2ccc(C(=O)NNC(=O)Nc3ccccc3)cc2NC1=O`, `CCCC(=O)NNC(=O)c1c(O)c2ccccc2[nH]c1=O` is higher in “hERG current change (%, negative = inhibition) at 10uM” value: 8.71% for the first, 13.3% for the second.

First: O=[N+]([O-])c1cc(-c2nc(-c3ccncc3)no2)ccc1Cl
Second: O=C(CCn1c(=S)oc2ccccc21)Nc1cc([N+](=O)[O-])ccc1F
The “hERG current change (%, negative = inhibition) at 10uM” value of the first is lower: -3.98% for the first, 13.5% for the second.

Compared with `CCCCc1nc(N2CCN(C(=O)c3ccco3)CC2)c(C#N)c2c1CCCC2`, `O=C(CCCSc1nc2ccccc2[nH]1)N1CCN(c2ccc([N+](=O)[O-])cc2)CC1` is lower in “hERG current change (%, negative = inhibition) at 10uM” value: -5.71% for the first, -79.9% for the second.

Compared with `COc1ccc(NS(=O)(=O)c2cccc(C(=O)N(C)Cc3cccs3)c2)cc1`, `O=C(COC(=O)c1ccc(S(=O)(=O)Nc2ccccc2)cc1)NCc1ccco1` is higher in “hERG current change (%, negative = inhibition) at 10uM” value: -3.83% for the first, -2.1% for the second.

Going from `COC(=O)c1c(N2C(=O)[C@H]3[C@@H](C2=O)[C@]2(C(=O)Nc4c(C)cccc42)N2CCC[C@@H]32)sc(C)c1C` to `CC1CCN(C(=O)c2ccc3c(c2NCCO)C(=O)c2ccccc2C3=O)CC1`, the “hERG current change (%, negative = inhibition) at 10uM” value falls from -1.93% to -3.74%.

Going from `Cc1cc(=O)oc2cc(OCC3CC(c4ccc(N(C)C)cc4)=NO3)ccc12` (centres unmarked) to `CCC(=O)OCc1cc(=O)oc2ccc3ccccc3c12`, the “hERG current change (%, negative = inhibition) at 10uM” value rises from -2.99% to 22.3%.

Compared with `CN(Cc1ccccc1)C(=O)CCS(=O)(=O)c1ccc2c(c1)NC(=O)CS2`, `O=C1NC(=O)C(Nc2cccc3ccccc23)S1` (centres unmarked) is higher in “hERG current change (%, negative = inhibition) at 10uM” value: -6.49% for the first, 7.89% for the second.

Going from `Cc1cc(C)cc(N(CCC#N)C(=O)CSc2ncnc3sccc23)c1` to `CCN(CC)C(=O)c1cccc(NC(=O)c2ccc3c(=O)n4c(nc3c2)CCC4)c1`, the “hERG current change (%, negative = inhibition) at 10uM” value rises from -41% to -10.7%.

Compared with `O=C(OC1CCOC1=O)c1cc(S(=O)(=O)N2CCOCC2)c(Cl)cc1Cl` (centres unmarked), `O=C(Nc1ccc(Br)cc1F)C1CCCN(S(=O)(=O)c2cnc[nH]2)C1` (centres unmarked) is higher in “hERG current change (%, negative = inhibition) at 10uM” value: -3.05% for the first, -2.49% for the second.

Compared with `CCOC(=O)c1cc(-c2ccccc2)n(CC(=O)N2CCCC2)c1C`, `Cc1nn(-c2ccccc2)c(C)c1/C=C/C(=O)OCC(=O)Nc1ccc(C(N)=O)cc1` is higher in “hERG current change (%, negative = inhibition) at 10uM” value: 6.12% for the first, 17.3% for the second.

Going from `Cc1ccc(C)n1-c1nnc(N2CCC(C(=O)N3CCN(C)CC3)CC2)s1` to `COc1ccc(S(=O)(=O)N2CCCC2C(=O)Nc2nc3c(s2)CCCC3)cc1` (centres unmarked), the “hERG current change (%, negative = inhibition) at 10uM” value falls from 7.34% to -14%.

Going from `CNc1c(N)n(Cc2ccccc2)c(=O)[nH]c1=O` to `c1ccc(CCc2nn3c(Cc4ccccc4)nnc3s2)cc1`, the “hERG current change (%, negative = inhibition) at 10uM” value falls from 10.4% to -36.1%.

Compared with `O=C(/C=C/c1ccccc1)NCCS(=O)(=O)N1CCN(c2ccccc2F)CC1`, `O=C1CCN(CCc2ccccc2)CCN1[C@H](CSc1ccccc1)c1ccccc1` is lower in “hERG current change (%, negative = inhibition) at 10uM” value: -3.41% for the first, -78.7% for the second.

Compared with `C=CCn1c(CC#N)nnc1N1CCOCC1.Cl`, `O=c1oc2cc(OCc3nn[nH]n3)ccc2c2c1CCCC2` is higher in “hERG current change (%, negative = inhibition) at 10uM” value: 1.13% for the first, 11.5% for the second.

Going from `CN(C)S(=O)(=O)c1ccc(N2CCCC2)c(C(=O)Nc2nc(-c3ccc(F)c(F)c3)cs2)c1` to `CCN(CC)S(=O)(=O)c1ccc(NC(=O)c2cnccn2)cc1`, the “hERG current change (%, negative = inhibition) at 10uM” value falls from 14.4% to 7.95%.

Going from `COc1ccc2c3c([nH]c2c1)C(C)N(CCC(=O)NN)CC3` (centres unmarked) to `COc1ccc2nc(SCC(=O)NC(C)(C)C)[nH]c2c1`, the “hERG current change (%, negative = inhibition) at 10uM” value rises from 6.86% to 8.03%.

Compared with `COc1ccc(C2CC23N=C(c2ccccc2)OC3=O)cc1` (centres unmarked), `Cn1c(SCC(=O)c2ccc3c(c2)Cc2ccccc2-3)nnc1-c1cccc(N)c1` is higher in “hERG current change (%, negative = inhibition) at 10uM” value: -13.2% for the first, 5.24% for the second.

Compared with `Cc1ccc(-c2ccc([C@H]3[C@H]4C=CC[C@@H](C)[C@@H]4C(=O)N3Cc3ccccc3)c(F)c2)cc1`, `CCc1ccc(S(=O)(=O)/N=C2/C=C(Sc3ncn[nH]3)C(=O)c3ccccc32)cc1` is higher in “hERG current change (%, negative = inhibition) at 10uM” value: 2.24% for the first, 25% for the second.

Compared with `O=S1(=O)[C@H]2C[C@@H]3C=C[C@]2(CN1Cc1ccc(C(F)(F)F)cc1)O3`, `Cc1sc(-n2c(C)cc(/C=N/n3cnnc3)c2C)c(C#N)c1C` is lower in “hERG current change (%, negative = inhibition) at 10uM” value: -2.24% for the first, -12.9% for the second.
